# According to the supplement of paper PMC12217912:
# The other results are listed elsewhere or left out. The full chains were built here from the parent and the listed change. Values near 0.05 are background.
# B1: TEV protease; numbered along this chain (parent)
# chain: MGESLFKGPRDYNPISSSICHLTNESDGHTTSLYGIGFGPFIITNKHLFRRNNGTLVVQSLHGVFKVKDTTTLQQHLVDGRDMIIIRMPKDFPPFPQKLKFREPQREERICLVTTNFQTKSMSSMVSDTSCTFPSGDGIFWKHWIQTKDGQCGSPLVSTRDGFIVGIHSASNFTNTNNYFTSVPKNFMELLTNQEAQQWVSGWRLNADSVLWGGHKVFMVKPEEPFQPVKEATQL
# Variants of: B1
# Assay: raw area under fraction-flipped curve 0-4 h after induction (AUC4h, not background-subtracted), DNA-recorder readout of cleavage of the substrate (dimensionless); higher = more cleavage of the substrate by the protease variant
# Details: temperature: 34 °C; time window: 0-4 h after rhamnose induction
# 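Further: Bxb1 expression induced with 0.2% (w/v) L-rhamnose at OD600 near 0.5, cultures sampled hourly, flipped fraction per protease–substrate barcode pair counted by paired-end Illumina sequencing.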
Variant,area with substrate ENAYFQS,area with substrate ENDYFQS,area with substrate ENFYFQS,area with substrate ENGYFQS,area with substrate ENNYFQS,area with substrate ENQYFQS,area with substrate ENTYFQS,area with substrate ENVYFQS,area with substrate ENCYFQS,area with substrate ENEYFQS
MGESLFKGPRDYNPISSSICHLTNESDGHTTSLYGIGFGPFIITNKHLFRRNNGTLVVQSLHGVFKVKDTTTLQQHLVDGRDMIIIRMPKDFPPFPQKLKFREPQREERICLVTTNFQTKSMSSMVSDTSCTFPSGDGIFWKHWIQTKDGQCGSPLVSTRDGFIVGIHSASNFTNTNNYFTSVPKNFMELLTNAEAQQWVSGWRLNADSVLWGGHKVFMVKPEEPFQPVKEATQL [Q194A],0.067,0.0399,0.0516,0.0695,0.0479,0.0642,0.0551,0.0724,–,–
MGESLFKGPRDYNPISSSICHLTNESDGHTTSLYGIGFGPFIITNKHLFRRNNGTLVVQSLHGVFKVKDTTTLQQHLVDGRDMIIIRMPKDFPPFPQKLKFREPQREERICLVTTNFQTKSMSSMVSDTSCTFPSGDGIFWKHWIQTKDGQCGSPLVSTRDGFIVGIHSASNFTNTNNYFTSVPKNFMELLTNCEAQQWVSGWRLNADSVLWGGHKVFMVKPEEPFQPVKEATQL [Q194C],0.0906,0.0995,–,–,0.0472,0.0593,0.0513,0.0806,0.0649,0.0603
MGESLFKGPRDYNPISSSICHLTNESDGHTTSLYGIGFGPFIITNKHLFRRNNGTLVVQSLHGVFKVKDTTTLQQHLVDGRDMIIIRMPKDFPPFPQKLKFREPQREERICLVTTNFQTKSMSSMVSDTSCTFPSGDGIFWKHWIQTKDGQCGSPLVSTRDGFIVGIHSASNFTNTNNYFTSVPKNFMELLTNWEAQQWVSGWRLNADSVLWGGHKVFMVKPEEPFQPVKEATQL [Q194W],0.0064,0.0588,–,–,0.0579,–,0.0667,0.074,0.0607,0.054
MGESLFKGPRDYNPISSSICHLTNESDGHTTSLYGIGFGPFIITNKHLFRRNNGTLVVQSLHGVFKVKDTTTLQQHLVDGRDMIIIRMPKDFPPFPQKLKFREPQREERICLVTTNFQTKSMSSMVSDTSCTFPSGDGIFWKHWIQTKDGQCGSPLVSTRDGFIVGIHSASNFTNTNNYFTSVPKNFMELLTNQLAQQWVSGWRLNADSVLWGGHKVFMVKPEEPFQPVKEATQL [E195L],0.0588,–,–,0.0545,–,–,–,–,–,0.0475
MGESLFKGPRDYNPISSSICHLTNESDGHTTSLYGIGFGPFIITNKHLFRRNNGTLVVQSLHGVFKVKDTTTLQQHLVDGRDMIIIRMPKDFPPFPQKLKFREPQREERICLVTTNFQTKSMSSMVSDTSCTFPSGDGIFWKHWIQTKDGQCGSPLVSTRDGFIVGIHSASNFTNTNNYFTSVPKNFMELLTNQPAQQWVSGWRLNADSVLWGGHKVFMVKPEEPFQPVKEATQL [E195P],0.0673,0.0636,0.0657,–,–,0.0687,–,–,–,–
MGESLFKGPRDYNPISSSICHLTNESDGHTTSLYGIGFGPFIITNKHLFRRNNGTLVVQSLHGVFKVKDTTTLQQHLVDGRDMIIIRMPKDFPPFPQKLKFREPQREERICLVTTNFQTKSMSSMVSDTSCTFPSGDGIFWKHWIQTKDGQCGSPLVSTRDGFIVGIHSASNFTNTNNYFTSVPKNFMELLTNQSAQQWVSGWRLNADSVLWGGHKVFMVKPEEPFQPVKEATQL [E195S],0.0611,0.0618,–,0.0629,–,0.0863,0.0816,0.0423,0.0772,0.0565
MGESLFKGPRDYNPISSSICHLTNESDGHTTSLYGIGFGPFIITNKHLFRRNNGTLVVQSLHGVFKVKDTTTLQQHLVDGRDMIIIRMPKDFPPFPQKLKFREPQREERICLVTTNFQTKSMSSMVSDTSCTFPSGDGIFWKHWIQTKDGQCGSPLVSTRDGFIVGIHSASNFTNTNNYFTSVPKNFMELLTNQTAQQWVSGWRLNADSVLWGGHKVFMVKPEEPFQPVKEATQL [E195T],0.0504,–,–,–,–,0.0462,–,–,0.0626,–
MGESLFKGPRDYNPISSSICHLTNESDGHTTSLYGIGFGPFIITNKHLFRRNNGTLVVQSLHGVFKVKDTTTLQQHLVDGRDMIIIRMPKDFPPFPQKLKFREPQREERICLVTTNFQTKSMSSMVSDTSCTFPSGDGIFWKHWIQTKDGQCGSPLVSTRDGFIVGIHSASNFTNTNNYFTSVPKNFMELLTNQEVQQWVSGWRLNADSVLWGGHKVFMVKPEEPFQPVKEATQL [A196V],0.0512,–,–,0.0523,0.066,0.082,–,–,–,0.0482
MGESLFKGPRDYNPISSSICHLTNESDGHTTSLYGIGFGPFIITNKHLFRRNNGTLVVQSLHGVFKVKDTTTLQQHLVDGRDMIIIRMPKDFPPFPQKLKFREPQREERICLVTTNFQTKSMSSMVSDTSCTFPSGDGIFWKHWIQTKDGQCGSPLVSTRDGFIVGIHSASNFTNTNNYFTSVPKNFMELLTNQEARQWVSGWRLNADSVLWGGHKVFMVKPEEPFQPVKEATQL [Q197R],0.0704,0.0502,0.049,–,–,0.0568,–,–,–,0.0912
MGESLFKGPRDYNPISSSICHLTNESDGHTTSLYGIGFGPFIITNKHLFRRNNGTLVVQSLHGVFKVKDTTTLQQHLVDGRDMIIIRMPKDFPPFPQKLKFREPQREERICLVTTNFQTKSMSSMVSDTSCTFPSGDGIFWKHWIQTKDGQCGSPLVSTRDGFIVGIHSASNFTNTNNYFTSVPKNFMELLTNQEAQGWVSGWRLNADSVLWGGHKVFMVKPEEPFQPVKEATQL [Q198G],0.0602,0.0696,–,0.0444,–,0.0557,0.0647,0.0842,–,–
MGESLFKGPRDYNPISSSICHLTNESDGHTTSLYGIGFGPFIITNKHLFRRNNGTLVVQSLHGVFKVKDTTTLQQHLVDGRDMIIIRMPKDFPPFPQKLKFREPQREERICLVTTNFQTKSMSSMVSDTSCTFPSGDGIFWKHWIQTKDGQCGSPLVSTRDGFIVGIHSASNFTNTNNYFTSVPKNFMELLTNQEAQSWVSGWRLNADSVLWGGHKVFMVKPEEPFQPVKEATQL [Q198S],0.0549,0.0626,0.0651,0.0608,–,0.0599,0.0622,0.0635,0.0731,0.0656

# Same assay, conditions: temperature: 34 °C; time window: 0-4 h after rhamnose induction
Variant,area with substrate ENHYFQS,area with substrate ENIYFQS,area with substrate ENKYFQS,area with substrate ENPYFQS,area with substrate ENSYFQS,area with substrate ENMYFQS,area with substrate ENRYFQS,area with substrate ENYYFQS,area with substrate ENWYFQS
MGESLFKGPRDYNPISSSICHLTNESDGHTTSLYGIGFGPFIITNKHLFRRNNGTLVVQSLHGVFKVKDTTTLQQHLVDGRDMIIIRMPKDFPPFPQKLKFREPQREERICLVTTNFQTKSMSSMVSDTSCTFPSGDGIFWKHWIQTKDGQCGSPLVSTRDGFIVGIHSASNFTNTNNYFTSVPKNFMELLTNCEAQQWVSGWRLNADSVLWGGHKVFMVKPEEPFQPVKEATQL [Q194C],0.0714,0.12,0.0583,0.0711,0.0549,–,–,–,–
MGESLFKGPRDYNPISSSICHLTNESDGHTTSLYGIGFGPFIITNKHLFRRNNGTLVVQSLHGVFKVKDTTTLQQHLVDGRDMIIIRMPKDFPPFPQKLKFREPQREERICLVTTNFQTKSMSSMVSDTSCTFPSGDGIFWKHWIQTKDGQCGSPLVSTRDGFIVGIHSASNFTNTNNYFTSVPKNFMELLTNWEAQQWVSGWRLNADSVLWGGHKVFMVKPEEPFQPVKEATQL [Q194W],–,–,0.067,0.0458,–,0.0805,0.0659,0.0627,–
MGESLFKGPRDYNPISSSICHLTNESDGHTTSLYGIGFGPFIITNKHLFRRNNGTLVVQSLHGVFKVKDTTTLQQHLVDGRDMIIIRMPKDFPPFPQKLKFREPQREERICLVTTNFQTKSMSSMVSDTSCTFPSGDGIFWKHWIQTKDGQCGSPLVSTRDGFIVGIHSASNFTNTNNYFTSVPKNFMELLTNQLAQQWVSGWRLNADSVLWGGHKVFMVKPEEPFQPVKEATQL [E195L],0.0553,–,–,–,0.0453,–,–,–,–
MGESLFKGPRDYNPISSSICHLTNESDGHTTSLYGIGFGPFIITNKHLFRRNNGTLVVQSLHGVFKVKDTTTLQQHLVDGRDMIIIRMPKDFPPFPQKLKFREPQREERICLVTTNFQTKSMSSMVSDTSCTFPSGDGIFWKHWIQTKDGQCGSPLVSTRDGFIVGIHSASNFTNTNNYFTSVPKNFMELLTNQSAQQWVSGWRLNADSVLWGGHKVFMVKPEEPFQPVKEATQL [E195S],–,–,–,0.0572,–,–,–,–,0.0655
MGESLFKGPRDYNPISSSICHLTNESDGHTTSLYGIGFGPFIITNKHLFRRNNGTLVVQSLHGVFKVKDTTTLQQHLVDGRDMIIIRMPKDFPPFPQKLKFREPQREERICLVTTNFQTKSMSSMVSDTSCTFPSGDGIFWKHWIQTKDGQCGSPLVSTRDGFIVGIHSASNFTNTNNYFTSVPKNFMELLTNQTAQQWVSGWRLNADSVLWGGHKVFMVKPEEPFQPVKEATQL [E195T],–,–,–,–,0.0567,–,–,–,–
MGESLFKGPRDYNPISSSICHLTNESDGHTTSLYGIGFGPFIITNKHLFRRNNGTLVVQSLHGVFKVKDTTTLQQHLVDGRDMIIIRMPKDFPPFPQKLKFREPQREERICLVTTNFQTKSMSSMVSDTSCTFPSGDGIFWKHWIQTKDGQCGSPLVSTRDGFIVGIHSASNFTNTNNYFTSVPKNFMELLTNQEVQQWVSGWRLNADSVLWGGHKVFMVKPEEPFQPVKEATQL [A196V],–,–,–,–,–,–,–,0.0572,–
MGESLFKGPRDYNPISSSICHLTNESDGHTTSLYGIGFGPFIITNKHLFRRNNGTLVVQSLHGVFKVKDTTTLQQHLVDGRDMIIIRMPKDFPPFPQKLKFREPQREERICLVTTNFQTKSMSSMVSDTSCTFPSGDGIFWKHWIQTKDGQCGSPLVSTRDGFIVGIHSASNFTNTNNYFTSVPKNFMELLTNQEARQWVSGWRLNADSVLWGGHKVFMVKPEEPFQPVKEATQL [Q197R],–,–,0.0545,–,0.0826,–,–,–,0.049
MGESLFKGPRDYNPISSSICHLTNESDGHTTSLYGIGFGPFIITNKHLFRRNNGTLVVQSLHGVFKVKDTTTLQQHLVDGRDMIIIRMPKDFPPFPQKLKFREPQREERICLVTTNFQTKSMSSMVSDTSCTFPSGDGIFWKHWIQTKDGQCGSPLVSTRDGFIVGIHSASNFTNTNNYFTSVPKNFMELLTNQEAQGWVSGWRLNADSVLWGGHKVFMVKPEEPFQPVKEATQL [Q198G],0.0488,–,–,0.0545,0.0619,–,–,–,–
MGESLFKGPRDYNPISSSICHLTNESDGHTTSLYGIGFGPFIITNKHLFRRNNGTLVVQSLHGVFKVKDTTTLQQHLVDGRDMIIIRMPKDFPPFPQKLKFREPQREERICLVTTNFQTKSMSSMVSDTSCTFPSGDGIFWKHWIQTKDGQCGSPLVSTRDGFIVGIHSASNFTNTNNYFTSVPKNFMELLTNQEAQSWVSGWRLNADSVLWGGHKVFMVKPEEPFQPVKEATQL [Q198S],0.0593,–,–,–,0.0535,–,0.0545,–,–
